# Among all 310,000 compounds or so, about 2,200 (0.71%) showed an effect of 50% or more. Effects have a minus sign here. The list shows a part of the results.
# Molecular target: human ether-à-go-go-related gene (hERG) potassium channel (human, UniProt Q12809)
# Experiment: primary screen, population patch clamp on CHO cells stably expressing hERG
# human ether-à-go-go-related gene (hERG) potassium channel, sequence (Q12809 whole entry, looked up): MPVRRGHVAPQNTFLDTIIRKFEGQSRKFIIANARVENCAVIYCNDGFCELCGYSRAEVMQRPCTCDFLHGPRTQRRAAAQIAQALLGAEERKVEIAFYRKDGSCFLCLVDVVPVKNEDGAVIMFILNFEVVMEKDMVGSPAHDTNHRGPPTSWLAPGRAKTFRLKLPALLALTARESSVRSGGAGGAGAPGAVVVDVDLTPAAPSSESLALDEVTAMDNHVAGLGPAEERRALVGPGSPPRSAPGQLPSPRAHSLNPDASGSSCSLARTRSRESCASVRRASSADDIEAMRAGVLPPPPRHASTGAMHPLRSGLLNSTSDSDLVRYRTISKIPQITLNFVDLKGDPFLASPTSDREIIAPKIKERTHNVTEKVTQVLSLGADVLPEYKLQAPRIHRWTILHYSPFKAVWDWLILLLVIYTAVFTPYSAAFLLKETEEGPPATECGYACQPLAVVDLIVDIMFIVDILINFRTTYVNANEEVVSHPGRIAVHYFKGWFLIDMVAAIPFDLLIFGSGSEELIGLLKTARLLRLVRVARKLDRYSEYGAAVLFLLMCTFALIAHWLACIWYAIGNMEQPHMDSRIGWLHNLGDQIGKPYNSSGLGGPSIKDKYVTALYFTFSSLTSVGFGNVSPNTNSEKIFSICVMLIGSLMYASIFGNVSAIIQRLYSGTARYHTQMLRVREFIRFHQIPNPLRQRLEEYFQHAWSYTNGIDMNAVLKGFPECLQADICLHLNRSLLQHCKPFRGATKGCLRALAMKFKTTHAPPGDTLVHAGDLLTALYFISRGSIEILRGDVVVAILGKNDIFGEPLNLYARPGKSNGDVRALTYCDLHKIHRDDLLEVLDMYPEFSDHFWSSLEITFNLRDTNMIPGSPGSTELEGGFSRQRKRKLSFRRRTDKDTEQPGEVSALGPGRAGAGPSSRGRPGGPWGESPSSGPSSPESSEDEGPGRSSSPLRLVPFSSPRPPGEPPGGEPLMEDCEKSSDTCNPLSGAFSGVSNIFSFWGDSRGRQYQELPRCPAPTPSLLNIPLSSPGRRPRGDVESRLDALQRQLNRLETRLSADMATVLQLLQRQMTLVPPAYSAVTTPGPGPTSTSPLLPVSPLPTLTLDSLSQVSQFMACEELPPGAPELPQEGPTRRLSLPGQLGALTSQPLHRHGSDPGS
row,SMILES,"hERG current change (%, negative = inhibition) at 1uM [%]"
1,CCNC(=S)NNC(=O)Nc1ccccc1,5.4
2,COc1ccc(C2=NN(c3ccccc3)C(c3cn(CCC(=O)O)nc3-c3ccccc3)C2)cc1 (stereo not drawn),1.4
3,CNCC(=O)N(CC(C)C)c1c(N)n(CC(C)C)c(=O)[nH]c1=O,14.7
4,Cc1c(N)cccc1-c1nc2ccccc2[nH]1,19.2
5,COC(=O)C1=C(C)NC(C)=C(C(=O)OC)C1c1ccc(C)o1,13.6
6,COn1c(=O)c(-c2ccc(C)cc2)[n+]([O-])c2ccccc21,18.3
7,COc1ccccc1C(=O)Nc1ccnn1C1CCN(C(C)CSC)CC1 (stereo not drawn),-10.6
8,CCN(CC)c1ccc(C(=O)OCc2cc(=O)oc3cc(O)ccc23)cc1,4.83
9,Cc1ccc(S(=O)(=O)N2CCC(C(=O)C3C(=O)CCCC3=O)CC2)cc1,6.14
10,CCOC(=O)N1CCN(C(=O)CSc2nnc(CNC(=O)c3c(F)cccc3Cl)o2)CC1,6.57
11,Cc1[nH]nc(-c2ccc(O)cc2O)c1-c1nc2ccccc2s1.O=C(O)C(=O)O,10.4
12,Cc1cccc(CN2CCN(Cc3nc4c(s3)CCCC4)CC2CCO)n1 (stereo not drawn),1.31
13,Cc1ccc(-c2nn(CC(N)=O)c(=O)c3ccccc23)cc1S(=O)(=O)N(C)C,1.21
14,Cc1cccc(N(C(=O)c2csnn2)C(C(=O)NC2CCCCC2)c2ccccn2)c1C (stereo not drawn),12
15,Cc1c(NC(=O)OC(C)C)sc(=S)n1C,-0.475
16,O=C(c1ccc2c(c1)OCCO2)N1CCN(Cc2c(F)cccc2Cl)CC1,1.92
17,CC(C)(C)OC(=O)Cn1c(=O)cnc2ccccc21,13.9
18,Nc1nnc(SCC(=O)Nc2cccc(S(N)(=O)=O)c2)s1,0.79
19,O=C(CCSCCC(=O)N1CCCC1)N1CCCC1,22.3
20,O=C(O)c1ccc(COc2c(F)c(F)cc(F)c2F)cc1,10.1
21,Cc1cc(NC(=O)CSc2nc3sc4c(c3c(=O)n2C)CCCC4)no1,12.5
22,CCNc1nc(N)nc(Oc2ccc(OCC)nn2)n1,13.5
23,Cc1ccccc1-n1c(C)nnc1SCC(=O)N(C)C1CCS(=O)(=O)C1 (stereo not drawn),15.3

row,SMILES,"hERG current change (%, negative = inhibition) at 1uM [%]"
1,COc1ncnc(NS(=O)(=O)c2ccc(N)cc2)c1OC,-11.9
2,COCc1cc(OC(=O)N(C)C)nc(-c2ccc(C)c(Cl)c2)n1,15.6
3,C=CCNC(=S)NNC(=O)CC12CC3CC(CC(C3)C1)C2,13
4,COc1cc2c(C(=O)NCc3ccc(C)o3)cn(CC(C)C)c(=O)c2cc1OC,9.34
5,CCCN(CCC)CCCNC(=S)Nc1ccc2nc(N3CCCC3)cc(C)c2c1,-14.5
6,Cc1ccc(C(=O)N/C(=C\c2ccc(F)cc2)C(=O)NCCN2CCOCC2)cc1,-79.1
7,COc1ccc(NC(=O)NCc2cccnc2)c(OC)c1,13
8,C=CCN1C(=O)CSc2ccc(C(=O)OCC)cc21,-5.77
9,CCOC(=O)CSc1nc(-c2ccccc2)nc2ccc(F)cc12,19.4
10,Cc1ccc(CN2CCN(Cc3cnn(-c4ccc(F)cc4)c3)CC2CCO)o1 (stereo not drawn),-15.8
11,COc1ccccc1N1CCN(CCNC(=O)Nc2cccc(C)c2C)CC1,0.664
12,CC1(C)CC(=O)C2=C(C1)N(Cc1cccnc1)C(=O)C2(NC(=O)C1CC1)C(F)(F)F (stereo not drawn),3.61
13,CC(Oc1ccc(Cl)cc1Cl)C(=O)NCCN1CCOCC1 (stereo not drawn),5.12
14,Cc1nn(Cc2cccc(C(=O)NC(C)c3ccc(C(C)(C)C)cc3)c2)c(C)c1[N+](=O)[O-] (stereo not drawn),-0.0182
15,CS(=O)(=O)Nc1cccc(C2=NN(C(=O)c3cccc([N+](=O)[O-])c3)C(c3cccs3)C2)c1 (stereo not drawn),11
16,O=C(CCS(=O)(=O)c1cccs1)NC1CCCCCC1,7.3
17,O=C1CCCc2c1cc(-c1ccccc1)n2-c1ccccc1,-4.53
18,Cc1ccc(S(=O)(=O)Cc2ccc(C(=O)NC3CCCCCC3)o2)cc1,10.7
19,CN1C(=O)NC(c2ccc([N+](=O)[O-])cc2)C2=C1CC(C)(C)CC2=O (stereo not drawn),11.8
20,O=[N+]([O-])c1nn(-c2ccc3c(c2)OCCO3)n(O)c1=NCc1ccccc1Cl,6.95
21,CCOc1cc(/C=C2/NC(=O)N(CC(=O)OC)C2=O)ccc1O,9.21
22,Cc1cccc(C)c1NC(=O)CNC(=O)c1ccc2nc[nH]c2c1,13.2
23,O=C(c1nn2cccnc2c1Cl)N1CCN(c2ccccc2)CC1,13.9

row,SMILES,"hERG current change (%, negative = inhibition) at 1uM [%]"
1,N#CC1=C(N)SC(N)=C(C#N)C1CCc1ccccc1,17.2
2,N#C/C(=C/c1ccc(Cl)cc1)NC(=O)c1ccccc1,12.2
3,CCN(CC)C(=O)COc1ccc2oc(-c3ccco3)cc(=O)c2c1,-0.156
4,CC1C(=O)N2CCCc3cc(S(=O)(=O)N(C)CCC#N)cc1c32 (stereo not drawn),-3.28
5,CCOc1ccc(NC(=O)C2CCC(CNc3c(N4CCOCC4)c(=O)c3=O)CC2)cc1 (stereo not drawn),6.47
6,C=CCn1c(NCc2ccccc2OC)nc2ccccc21,8.43
7,COC(=O)c1cc(S(=O)(=O)NCC2CCN(Cc3cccc(Cl)c3)CC2)c[nH]1,5.82
8,O=C(CSc1ccc2nnc(-c3ccccc3)n2n1)NCc1ccc2c(c1)OCO2,-71
9,COc1ccccc1N1CCN(C2CCCN(C(=O)CCC(=O)N(C)C)C2)CC1 (stereo not drawn),-3.24
10,COc1ccc(-n2nc(C(=O)NCC(=O)NCCN(C)C)c3ccccc3c2=O)c(OC)c1,11.5
11,OCCN1CCN(c2nc(-c3ccccc3)nc3c2oc2ccccc23)CC1,3.14
12,CCOC(=O)N1CCC(=NNc2ccnc3cc(Cl)ccc23)CC1,-5.73
13,Cc1ccc(C(C(=O)NC2CCCCC2)N(Cc2ccco2)C(=O)Cc2c[nH]c3ccccc23)o1 (stereo not drawn),5.48
14,CC(C)N(C(=S)NC1CC2CCC1C2)c1ccccc1 (stereo not drawn),15.4
15,COc1ccc(C(C(=O)NCC2CCCO2)N(C(=O)CNC(=O)c2cccs2)c2ccc(NC(C)=O)cc2)cc1OC (stereo not drawn),13.8
16,CC(C)C1NC(=S)N(C2CCCCC2)C1=O (stereo not drawn),-16.2
17,CCCc1cc(=O)n2[nH]c(NCc3ccccc3Cl)nc2n1,13.9
18,Cc1ccc(OCC(=O)NCCCNC(=O)c2ccc(C)nc2)cc1,19.7
19,COc1ccc(CNCc2cc3c(cc2[N+](=O)[O-])OCO3)cc1.O=C(O)C(=O)O,-14
20,O=Cc1c(C(=O)O)n(Cc2ccc(Cl)cc2)c2ccccc12,15.2
21,CCOc1ccc(NC(=O)c2ccc(CSc3nnnn3C)cc2)cc1,6.92
22,CCc1ccccc1NC(=O)CCS(=O)(=O)c1ccc(OC)cc1,14.3
23,CC1CCCCN1CC(=O)NCc1ccc2c(c1)OCO2 (stereo not drawn),1.2

row,SMILES,"hERG current change (%, negative = inhibition) at 1uM [%]"
1,Cc1cc(C(=O)CSc2nnc(-c3ccc(F)cc3)o2)c(C)n1CC1CCCO1 (stereo not drawn),14
2,CCCC(=O)n1nc(-c2ccco2)nc1SCc1ccccc1,8.14
3,Cn1c(=O)[nH]c(=O)c2c1nc(CN1CCN(c3ccccc3F)CC1)n2CC(N)=O,4.23
4,CC(C)(C)c1ccc(-c2nnc(SCC(=O)NC3CC3)o2)cc1,9.68
5,Cc1ccc(CSCCNC(=O)/C=C/c2ccccc2Cl)cc1,4.67
6,O=C1CS/C(=N/N=C/c2c[nH]c3ccccc23)N1,6.96
7,Cc1cc(C)c(C#N)c(SCC(=O)c2ccccc2)n1,-11
8,COc1ccc(N2C(=O)CC(NNc3ncc(Cl)cc3Cl)C2=O)cc1 (stereo not drawn),-27.5
9,O=C1NC[C@H](c2ccccc2)N(CC2CCCCC2)C1=O,13.1
10,COC(=O)c1cc(NC(=O)c2nccnc2C(=O)O)cc(C(=O)OC)c1,13.7
11,Cc1ccc(OCCN2C(=O)OC(C)(C)C2(C)O)cc1 (stereo not drawn),5.2
12,Cc1ccc2[nH]c(=O)c(CN(CCO)C(=O)NCc3ccccc3)cc2c1,9.56
13,Cn1c(=O)c2c(ncn2Cc2nnc(N)s2)n(C)c1=O,13.7
14,COc1ccc(S(=O)(=O)N2CCN(C(=O)c3cc(C)on3)CC2)cc1,5.01
15,C=CCS(=O)(=O)N1CCCC(N2CCN(c3ccccc3OC)CC2)C1 (stereo not drawn),16.1
16,COc1ccc(NC(=S)N(CCN2CCOCC2)Cc2cc3cc4c(cc3[nH]c2=O)OCCO4)cc1,-0.555
17,COc1cc(OC)cc(C(=O)NCCC(c2ccccc2)c2ccccc2)c1,-4.61
18,S=C(Nc1ccccc1)c1nc2ccccc2s1,17.1
19,COc1ccc(/C=C/C(=O)NC(=S)NNC(=O)c2cccnc2)cc1,8.82
20,Cc1ccc(S(=O)(=O)N2CCN(C(=O)COC(=O)c3c(C)noc3C)CC2)c(C)c1,4.02
21,COC(C(=O)Nc1cccc([N+](=O)[O-])c1)c1ccccc1 (stereo not drawn),5.48
